Results are given in words; binding and its absence hold for the method and conditions named. In cells and extracts the contact can be indirect. Some entries that bind do so weakly or less than the wild type.

Protein sequences, listed by entry. Tags and fused reporters are not part of them. Lines headed by an entry give the natural chain unless they say otherwise; changes in a name come on top.
UniProt Q04206: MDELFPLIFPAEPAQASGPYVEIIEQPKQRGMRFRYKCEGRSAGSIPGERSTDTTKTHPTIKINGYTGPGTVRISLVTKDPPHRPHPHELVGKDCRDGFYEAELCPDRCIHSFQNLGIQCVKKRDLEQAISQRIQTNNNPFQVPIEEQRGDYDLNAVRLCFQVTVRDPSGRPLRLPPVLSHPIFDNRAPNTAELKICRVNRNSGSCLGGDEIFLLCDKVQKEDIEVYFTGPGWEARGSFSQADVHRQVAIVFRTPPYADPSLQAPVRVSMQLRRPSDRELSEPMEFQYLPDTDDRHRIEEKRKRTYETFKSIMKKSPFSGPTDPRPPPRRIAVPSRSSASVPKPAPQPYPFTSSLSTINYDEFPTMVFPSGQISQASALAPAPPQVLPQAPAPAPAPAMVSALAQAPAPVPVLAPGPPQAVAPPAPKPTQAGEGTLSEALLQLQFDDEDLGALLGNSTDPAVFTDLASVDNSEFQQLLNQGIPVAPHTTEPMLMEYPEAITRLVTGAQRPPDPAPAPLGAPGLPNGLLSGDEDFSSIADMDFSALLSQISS
UniProt Q8N6T7: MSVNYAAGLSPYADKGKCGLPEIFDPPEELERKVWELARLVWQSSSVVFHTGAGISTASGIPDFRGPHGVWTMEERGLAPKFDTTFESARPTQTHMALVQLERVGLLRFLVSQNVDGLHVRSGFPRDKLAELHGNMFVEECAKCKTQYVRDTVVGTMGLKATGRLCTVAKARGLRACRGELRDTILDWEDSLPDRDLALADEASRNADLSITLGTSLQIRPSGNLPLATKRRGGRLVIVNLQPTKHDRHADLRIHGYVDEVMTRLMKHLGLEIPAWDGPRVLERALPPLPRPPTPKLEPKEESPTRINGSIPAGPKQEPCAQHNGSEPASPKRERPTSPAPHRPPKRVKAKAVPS

In one experiment the target is HA-p65 (NF-κB p65) (UniProt Q04206). Description: co-IP; HEK293T cells expressing Flag-SIRT6 and HA-p65; RIPA III lysis buffer; precipitated with α-Flag or α-HA antibody overnight at 4°C, protein A/G agarose; immunoblot.
Consider “Flag-SIRT6 (full-length SIRT6) (from UniProt Q8N6T7 1-355)”, for which the binding result is reported as “binds”.

Another experiment has as its target HA-SIRT6 (UniProt Q8N6T7). Description: co-IP; HEK293T cells expressing HA-SIRT6 and Flag-p65 variants; precipitated with α-HA monoclonal antibody; immunoblot. In general terms: Immunoblotting shows a protein as a band on a membrane.
In the case of “Flag-p65 DNA binding domain (amino acids 1–186) (from UniProt Q04206 1-186) (domain or fragment)”, the binding entry is “binds”.

As for “Flag-p65 activation domain (amino acids 287–551) (from UniProt Q04206 287-551) (domain or fragment)”, the binding entry is “no binding”.

“Flag-p65 full-length (from UniProt Q04206 1-551)”: the binding result was “binds”.

Consider “Flag-p65 ΔAD (from UniProt Q04206 1-286) (domain or fragment)”, for which the binding result is on record as “binds”.

Another experiment has as its target HA-p65 (NF-κB p65) (UniProt Q04206). Nature of the experiment: co-IP; HEK293T cells expressing HA-p65 together with Flag-SIRT6 variants; precipitated with a HA monoclonal antibody; immunoblot.
“Flag-SIRT6 (full-length SIRT6) (from UniProt Q8N6T7 1-355)”: the binding result was “binds”.

In the case of “Flag-SIRT6 sirtuin core domain (amino acids 34–274) (from UniProt Q8N6T7 34-274) (domain or fragment)”, the binding entry is reported as “binds”.

As to “Flag-SIRT6 ΔC (amino acids 275–355 was deleted) (from UniProt Q8N6T7 1-274) (domain or fragment)”, the binding entry was “binds”.

As to “Flag-SIRT6 ΔN (amino acids 1–33 was deleted) (from UniProt Q8N6T7 34-355) (domain or fragment)”, the binding result was “binds”.

These data come from publication PMC5900784.
